Out of some 310,000 compounds screened, about 14,000 (4.5%) showed an effect of 50% or more. Effects have a minus sign here. This is one part of the list.
What follows are molecules tested against human ether-à-go-go-related gene (hERG) potassium channel (human, UniProt Q12809) (assay: primary screen, population patch clamp on CHO cells stably expressing hERG).
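Note: peak tail current of the secondary pulse compared with the same well before compound.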

human ether-à-go-go-related gene (hERG) potassium channel, sequence (Q12809 whole entry, looked up): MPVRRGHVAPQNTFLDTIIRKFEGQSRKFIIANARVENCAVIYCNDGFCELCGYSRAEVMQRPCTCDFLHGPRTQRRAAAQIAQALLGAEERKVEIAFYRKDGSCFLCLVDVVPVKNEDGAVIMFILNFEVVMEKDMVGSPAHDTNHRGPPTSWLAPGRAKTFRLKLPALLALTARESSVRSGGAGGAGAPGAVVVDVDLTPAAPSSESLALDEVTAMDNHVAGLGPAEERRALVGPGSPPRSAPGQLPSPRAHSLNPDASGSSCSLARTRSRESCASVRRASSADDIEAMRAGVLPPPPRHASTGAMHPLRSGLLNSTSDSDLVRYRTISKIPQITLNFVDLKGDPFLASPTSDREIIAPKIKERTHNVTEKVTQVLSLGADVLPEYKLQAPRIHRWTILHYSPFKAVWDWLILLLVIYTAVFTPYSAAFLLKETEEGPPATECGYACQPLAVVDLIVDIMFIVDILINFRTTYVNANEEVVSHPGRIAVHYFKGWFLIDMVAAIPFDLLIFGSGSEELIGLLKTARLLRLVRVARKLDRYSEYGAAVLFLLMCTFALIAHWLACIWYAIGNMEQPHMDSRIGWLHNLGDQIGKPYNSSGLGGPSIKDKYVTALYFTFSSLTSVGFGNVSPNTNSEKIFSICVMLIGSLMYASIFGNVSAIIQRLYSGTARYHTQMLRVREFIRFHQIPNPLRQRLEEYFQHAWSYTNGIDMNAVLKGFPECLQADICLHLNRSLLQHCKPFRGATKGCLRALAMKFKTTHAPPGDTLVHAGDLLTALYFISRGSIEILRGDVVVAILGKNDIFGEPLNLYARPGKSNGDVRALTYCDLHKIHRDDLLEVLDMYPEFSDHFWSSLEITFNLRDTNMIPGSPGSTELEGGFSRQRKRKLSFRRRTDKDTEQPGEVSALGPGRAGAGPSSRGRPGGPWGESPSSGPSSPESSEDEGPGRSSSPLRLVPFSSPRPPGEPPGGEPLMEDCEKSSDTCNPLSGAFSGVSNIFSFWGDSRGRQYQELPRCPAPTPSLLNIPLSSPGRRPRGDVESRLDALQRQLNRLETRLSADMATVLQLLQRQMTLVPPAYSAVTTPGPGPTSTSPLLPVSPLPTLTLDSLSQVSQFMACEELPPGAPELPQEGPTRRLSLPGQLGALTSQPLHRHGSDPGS

Row | Compound | hERG current change (%, negative = inhibition) at 10uM [%]
1 | CN(C)S(=O)(=O)N1CCC(Oc2ccc(C(=O)N3C[C@@H]4CCC[C@H]3C4)cc2)CC1 | 4.6
2 | COc1ccc(-c2noc(-c3ccc(Cl)cc3[N+](=O)[O-])n2)cc1OC | -7.48
3 | CCN(CC)C(=O)c1cc(C(C)(C)C)c(O)c(C(C)(C)C)c1 | -34.4
4 | C=C(C)CC(c1ccccc1)N(C(C)=O)c1ccco1 (centres unmarked) | 0.026
5 | Cc1cc(C)c(S(=O)(=O)Nc2c(C)n(C)n(-c3ccccc3)c2=O)cc1[N+](=O)[O-] | 9.1
6 | CC(Sc1nc(=O)cc(N)n1CCc1ccccc1)C(=O)NCc1ccccc1 (centres unmarked) | 3.18
7 | O=C1CC(N2CCOCC2)=NN1c1ccc([N+](=O)[O-])cc1 | -8.54
8 | CCOC(=O)c1ccc(/[N+]([O-])=C/c2ccccc2)cc1 | 0.217
9 | Cc1ccccc1NC(=O)NCc1ccco1 | 8.5
10 | COc1ccc(CCN(C(=S)Nc2ccccc2)C2CC(=O)N(c3ccccc3)C2=O)cc1 (centres unmarked) | 10.9
11 | O=C(CCNS(=O)(=O)c1ccc(Br)cc1)NCCc1ccccc1 | -15.9
12 | COc1ccc(CCC(=O)N2CCN(S(=O)(=O)c3ccc(OC)cc3)CC2)cc1 | -8.45
13 | O=C(Cn1nnc(-c2cccc(C(F)(F)F)c2)n1)NC1CCCC1 | 9.02
14 | COc1ccc(S(=O)(=O)Nc2ccccc2N2CCOCC2)cc1[N+](=O)[O-] | -13.7
15 | CC(C(=O)NCCCN1CCOCC1)n1cccc1C(=O)c1ccccc1 (centres unmarked) | 1.16
16 | O=C(Nc1ccc(Cl)cc1)C(Cl)C(=O)c1ccccc1 (centres unmarked) | -3.81
17 | Cc1ccc2c(C(=O)CN3CCN(C4CCCCC4)CC3)c(C)[nH]c2c1 | -55.1
18 | Cc1cc(Cl)n2nc(C)c(-c3ccc(Cl)cc3)c2n1 | 21.7
19 | CCOC(=O)N1CCN(C(=O)COc2ccc(S(=O)(=O)NCC(C)C)cc2C)CC1 | -11.7
20 | COc1ccc(-c2cc(=O)oc3c(C)c(OCc4nn[nH]n4)ccc23)cc1 | 14.8
21 | COC(=O)C1=CN(Cc2ccc(OC)c(OC)c2)C=C(C(=O)OC)C1c1cccc(F)c1 | -4.58
22 | Cc1cc(C)nc(NS(=O)(=O)c2ccc(NC(=S)NC(=O)C(C)(C)C)cc2)n1 | -15.1
23 | Cc1cc(NC(=O)CN(C)CC(=O)Nc2ccc(Cl)c(C(F)(F)F)c2)no1 | -3.81
